Laboratory results: patent US20050009094A1 (priority 2001, published 2005)
Where two headings read alike, the source gives them in different places.

Assays:
[1] = tested on: 14-3-3 protein mRNA; assay: Expression of 14-3-3 protein mRNA after PCB 118 and 17β-oestradiol, alone or combined (Northern Blotting); conditions: for induction of expression of 14-3-3 in lower invertebrates: FIG. 4; for level of the 14-3-3 protein mRNA: PCB 118 2 μg/g, 17β-oestradiol 20 ng/g, 17β-oestradiol = 100% reference value, 3 or 6 days
Protocol: FIG. 4: The effect of PCB 118 (2 μg/g) and 17β-oestradiol (20 ng/g) on the expression of the 14-3-3 gen. The two chemicals were applied/added to the experimental animals (Geodium cydonium) either as individual substances or in combination. The incubation period was limited to 3 or 6 days.
For the quantification of the 14-3-3 protein mRNA by means of the Northern Blotting technique, gene probes, which extend from the conserved starting regions [aa 45-aa 57] up to the conserved end regions [aa 214-aa 234] of the 14-3-3 protein (FIG. 2) were constructed. The employed method was PCR cloning.
The quantitative evaluation of the signals can be accomplished e.g. by using the chemiluminescence method (Stanley and Kricka, Bioluminescence and chemiluminescence: current status. John Wiley & Sons, New York, 1990) in combination with a PhosphoImager (e.g. GS-525 Molecular Imager from the Bio-Rad company); [Di-sodium 2-chloro-5-(4-methoxyspiro{1,2-dioxetane-3,2 ′-(5′-chloro)-tricyclo[3.3.1.13,7]decane } -4-yl)phenylphosphate] (CDP) is used as a substrate for this.
Moreover, it was successfully shown, that an exponentiation of the expression of 14-3-3 protein mRNA sets in, when both substances are combined. In the absence of both agents, the 14-3-3 protein mRNA is not able to be detected. Whereas the level of the 14-3-3 protein mRNA was 30% when PCB118 is applied, and 100% (reference value) when 17β-oestradiol was applied, both chemicals together induced the expression of 14-3-3 protein at a value of 550%. The induction terminates after 3 days.

[2] = tested on: 14-3-3 protein

SMILES | induction of expression of 14-3-3 in lower invertebrates [1] | level of the 14-3-3 protein mRNA [1] | 14-3-3 protein (OD unit) ([2]; in vivo, ip) | also measured
C[C@]12CC[C@@H]3c4ccc(O)cc4CC[C@H]3[C@@H]1CC[C@@H]2O [17β-oestradiol] | strongly induce | 100% |  | 
[Cd] [Cadmium, cadmium] |  |  |  | 14-3-3 protein (OD unit) ([2]; cadmium 0.01 mg/kg i.p., liver after 5 days, ELISA): 0.30 OD unit; 14-3-3 protein (OD unit) ([2]; cadmium 0.03 mg/kg i.p., liver after 5 days, ELISA): 0.75 OD unit; 14-3-3 protein (OD unit) ([2]; cadmium 0.1 mg/kg i.p., liver after 5 days, ELISA): 0.98 OD unit
Clc1ccc(-c2ccc(Cl)c(Cl)c2)cc1Cl [PCB77] |  |  |  | 14-3-3 protein (OD unit) ([2]; 0.03 mg PCB per kg i.p., liver after 5 days, ELISA): 0.97 OD unit
Clc1ccc(-c2cc(Cl)c(Cl)cc2Cl)cc1Cl [PCB118] | strongly induce | 30% | 0.74 OD unit | 
Clc1cc(Cl)c(-c2cc(Cl)c(Cl)cc2Cl)cc1Cl [PCB153] |  |  | 0.81 OD unit | 
